In PMC12136788:
Substitutions are numbered along the chain they refer to. Some of the results follow.

B1: chr1:6885190:6885191:+_ENSG00000171735_ENST00000473578|hu_hu|motif|central (ssRNA)
RNA: GGGAGUUCUACAGUCCGACGAUCUGAACAUUUCGGCAGACAUUCAAGCAGCUUUUUCGGUAAAAAGAUUUUUACAUGACGGCGGUUGCUGUUCCCAUGAUCAUCUUCUAUAGGUGGCACGGUGUUGAGAACACAGUAGGUGCUCAACAGAGGAUUGAGCAUCA
B2: chr7:140404665:140404666:+_ENSG00000090266_ENST00000247866|hu_hu|FALSE|FALSE (ssRNA)
RNA: GGGAGUUCUACAGUCCGACGAUCCUUGUACAGAGUGAGGCUGAGUCUACACCUUCAGUCUUCAUCAUCAGGAGGGAUACCUAAUUCUUCAUCUGUCCACUGGGAAGGAUCAGGAUACGGAAAGUGACCCAGCACCUCUUCUGACAACAGAGGAUUGAGCAUCA
B3: chr4:144460044:144460045:+_ENSG00000153147_ENST00000283131|hu_mus|hu_hu_hu_mus_False|68_98 (ssRNA)
RNA: GGGAGUUCUACAGUCCGACGAUCACGGUCCAUAGCCUGAAGAUCUACUUGCGGAUUCCAAUCUGAGUCAUACAAAAUGACUACAUCAGCAGUUGCAAGAUUGAUGCCCAGACCACCAGCACGUGUGCUUAGCAUAAAUACAAACAACAGAGGAUUGAGCAUCA
B4: 18851253_18852991_7064_CDS_ENSG00000157106_ENST00000446231|human|control|control (ssRNA)
RNA: GGGAGUUCUACAGUCCGACGAUCGUAGGAAUCUUGGGCCUUUUGUGCUUGUAAGGCAGCUUCCCGUUGUUGCCAUCGUUUGUAAAGACCAAAUAAGGGUGUGGCUCCAUCUACCCACUGGAUUAGUCCUGAUCUUGUUCCUAGCAACAGAGGAUUGAGCAUCA
B5: chr7:140404665:140404666:+_ENSG00000090266_ENST00000247866|hu_hu|hu_hu_hu_mus_False|38_98 (ssRNA)
RNA: GGGAGUUCUACAGUCCGACGAUCUGCUCCUACUCGUAGGCUGAGUCUACAGUGUCAGUCCUCGUCAUCAGGAGGGAUUCCCAGUUCUUCAUCUGUCCACUGGGAAGGAUCUGGAUAUGAAAAGUGACCCAGCACAGCAUCCGACAACAGAGGAUUGAGCAUCA
B6: chr18:56819859:56819860:+_ENSG00000166562_ENST00000588875|hu_mus|motif|central (ssRNA)
RNA: GGGAGUUCUACAGUCCGACGAUCAACCUUGAUUACUCUGUGAACUAUCGGAAUGUCUCUUCCUUCAACCUUAAAAACAACGGUUUCACCAGCUCUGAUGGGGUCCUCCCGGAAAUUCGUGAGGAACAGCAGAUCUCCUCUGUGCAACAGAGGAUUGAGCAUCA
B7: 6688018_6690264_5096_CDS_ENSG00000111642_ENST00000544040|human|control|control (ssRNA)
RNA: GGGAGUUCUACAGUCCGACGAUCUUCUACCACAAUAGGGGUCAGAUCUAUUGCUGACUUUUCCUCCACCUUCUCUACAUCAGCAGCACCUUUGGGCUCUGUCUCCAUAGGUUCCUCUGUUCUCUCCUUCACCUCUGCCUUUUCCAACAGAGGAUUGAGCAUCA
B8: chr5:128440902:128440903:+_ENSG00000066583_ENST00000173527|hu_mus|hu_hu_hu_mus_True|88_88 (ssRNA)
RNA: GGGAGUUCUACAGUCCGACGAUCUUGAACGGUGCUGCCAAGUCCUUUAGGGUAUUGUUCCGUUAUGAUAACUGGAAUCCCUAAGAUCCGAGCUCCUUGCAACAGUCUCUGUCCCACACUAAUGAUGUCCCCAAAGUAUUUGAUCAACAGAGGAUUGAGCAUCA
B9: chr5:128440902:128440903:+_ENSG00000066583_ENST00000173527|hu_mus|hu_hu_hu_mus_True|38_68 (ssRNA)
RNA: B8 RNA with A48G, U72A, G104A
B10: chrX:71549400:71549401:+_ENSMUSG00000019087_ENSMUST00000019231|mus_hu|mus_mus_mus_hu_False|58_78 (ssRNA)
RNA: GGGAGUUCUACAGUCCGACGAUCGCAGUAGGAAGAGGGAAGCUCUUCAGUCCAGUGGUCACAAAACUGGGAAAGCACAACCUAGACCACCGUCCCACCCUCAACCCCCCCACUGGCACAGGGUCACACAAUCUGGGUCAAAGACAACAGAGGAUUGAGCAUCA
B11: chr16:94651144:94651145:+_ENSMUSG00000040785_ENSMUST00000117648|mus_hu|mus_mus_mus_hu_True|48_98 (ssRNA)
RNA: GGGAGUUCUACAGUCCGACGAUCAUUUUCUUGAAUCAAGUGACCGAUAACAUAGUCCACUGCUUCAUUUAGAAAAUUUCUGCUAGAAAAGCAUGUUGUAUAGUCUUCUGUGCUCAAAACUUUCCAAGAAAGCAAUUCUUUGAGCAACAGAGGAUUGAGCAUCA
B12: 119775107_119775227_77_5pUTR_ENSMUSG00000030172_ENSMUST00000032279|mouse|control|control (ssRNA)
RNA: GGGAGUUCUACAGUCCGACGAUCGAAGAAAAAAACAACAAUGUGAUUCUGUGAGGUUUCUCUAUGGCUAUAAAGUCAGCUUACAGCUAACAGAAGUAGCAGGCCAGCAGCUGUCCAAUCUUGAAGAAAUAUCUUAUGCCAUAUCAACAGAGGAUUGAGCAUCA
B13: chr9:44212477:44212478:-_ENSMUSG00000032112_ENSMUST00000034623|mus_mus|motif|central (ssRNA)
RNA: GGGAGUUCUACAGUCCGACGAUCUGGAUUCUUGAGGGCAAAGUCUGAGUAAAUUUCAUAAAUUUUUCGGAGAAGAGAAUCGGUUCCAGCUUGCCUAGGGUCUGCCAGGACCACAAACUUGAUCCCUGUCAGUGUUUGGAAGCACAACAGAGGAUUGAGCAUCA
B14: chr2:60072322:60072323:+_ENSMUSG00000026977_ENSMUST00000102748|mus_hu|FALSE|FALSE (ssRNA)
RNA: GGGAGUUCUACAGUCCGACGAUCUGAUCUUGUAUUCAAGGAAUCCUGACUAGAUCUUCGUGAAAAAAAAGUAGAUGACAUGCUAGAAGCUAUGCGUGACAGCAAUCUCCUCGUUGUCCGCCUACCUUCAUUGUCAGAAGAUUCCAACAGAGGAUUGAGCAUCA

Each binder was assayed against T1, UNK ZnF1-3 (human, UniProt Q9C0B0 31-174) (assay: nsRBNS (natural sequence RNA bind-n-seq); RBNS binding buffer (assumed for nsRBNS): 25 mM Tris pH 7.5, 150 mM KCl, 3 mM MgCl2, 0.01% Triton X-100, 500 ug/ml BSA, 20 U/ml SUPERase-In, 4 C; UNK is unkempt and MSI1 is Musashi-1; names of the RNAs are library labels; protein concentration not given here; high values mean tight binding).
T1 sequence: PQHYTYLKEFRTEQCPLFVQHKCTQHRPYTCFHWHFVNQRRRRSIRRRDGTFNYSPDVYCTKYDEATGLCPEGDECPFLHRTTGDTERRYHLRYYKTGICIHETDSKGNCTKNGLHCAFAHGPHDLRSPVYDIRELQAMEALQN
B1 showed a binding signal of 0.797 enrichment R.
Binder B2 has a binding signal of 0.933 enrichment R.
B3 was tested, and the binding signal was 1.05 enrichment R.
Binder B4 has a binding signal of 0.481 enrichment R.
B5 gave a binding signal of 1.1 enrichment R.
Binder B6 has a binding signal of 0.736 enrichment R.
With B7 the binding signal was 0.572 enrichment R.
For B8, the binding signal was 0.765 enrichment R.
B9 showed a binding signal of 0.884 enrichment R.
B10 showed a binding signal of 1.69 enrichment R.
With B11 the binding signal was 0.374 enrichment R.
With B12 the binding signal was 1.28 enrichment R.
With B13 the binding signal was 1.49 enrichment R.
For B14, the binding signal was 0.449 enrichment R.
